Data as given in article PMC4336329 (PLoS ONE, 2015).
Hit rate of the full screen: of about 310,000 compounds, about 14,000 (4.5%) showed an effect of 50% or more. Effects have a minus sign here. The list shows a part of the results.

Molecular target: human ether-à-go-go-related gene (hERG) potassium channel (human, UniProt Q12809)
Assay: primary screen, population patch clamp on CHO cells stably expressing hERG
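Also: peak tail current of the secondary pulse compared with the same well before compound.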

Sequence of human ether-à-go-go-related gene (hERG) potassium channel (Q12809 whole entry, looked up): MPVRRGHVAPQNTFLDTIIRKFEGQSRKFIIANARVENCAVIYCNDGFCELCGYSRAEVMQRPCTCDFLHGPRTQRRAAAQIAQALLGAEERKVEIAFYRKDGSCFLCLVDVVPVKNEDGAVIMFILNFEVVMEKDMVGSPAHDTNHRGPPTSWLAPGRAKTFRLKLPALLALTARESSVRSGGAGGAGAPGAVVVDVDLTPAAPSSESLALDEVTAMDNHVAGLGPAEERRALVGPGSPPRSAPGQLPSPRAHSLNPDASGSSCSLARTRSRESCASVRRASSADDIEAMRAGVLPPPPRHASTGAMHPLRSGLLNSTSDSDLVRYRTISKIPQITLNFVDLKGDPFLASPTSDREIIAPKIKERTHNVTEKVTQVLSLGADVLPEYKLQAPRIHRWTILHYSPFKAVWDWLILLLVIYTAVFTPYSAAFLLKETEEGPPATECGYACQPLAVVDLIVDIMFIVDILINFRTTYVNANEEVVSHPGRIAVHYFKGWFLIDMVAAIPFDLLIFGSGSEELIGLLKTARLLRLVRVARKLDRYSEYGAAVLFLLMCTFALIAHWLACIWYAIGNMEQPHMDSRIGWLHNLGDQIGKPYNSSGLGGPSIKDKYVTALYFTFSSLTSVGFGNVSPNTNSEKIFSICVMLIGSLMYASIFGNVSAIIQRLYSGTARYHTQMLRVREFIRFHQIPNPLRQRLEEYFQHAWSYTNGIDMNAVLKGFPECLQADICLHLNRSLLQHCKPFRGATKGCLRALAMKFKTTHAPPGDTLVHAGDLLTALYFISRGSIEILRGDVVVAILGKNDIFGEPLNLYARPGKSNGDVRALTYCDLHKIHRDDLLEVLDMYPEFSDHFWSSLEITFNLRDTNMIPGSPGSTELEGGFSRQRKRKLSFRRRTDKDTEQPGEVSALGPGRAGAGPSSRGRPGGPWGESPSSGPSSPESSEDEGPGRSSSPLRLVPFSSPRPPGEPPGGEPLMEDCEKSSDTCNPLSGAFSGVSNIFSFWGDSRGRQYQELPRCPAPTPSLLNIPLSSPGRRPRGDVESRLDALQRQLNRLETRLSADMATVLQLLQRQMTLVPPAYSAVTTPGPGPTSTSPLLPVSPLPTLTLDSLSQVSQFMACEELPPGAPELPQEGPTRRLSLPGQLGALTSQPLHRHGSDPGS

Compound	hERG current change (%, negative = inhibition) at 10uM [%]
O=C(CSc1cccs1)NCCc1ccccc1	13.1
COc1ccc(C(c2nnnn2Cc2ccccc2)N2CCN(c3nc4ccccc4s3)CC2)cc1 (stereo not drawn)	13.7
COc1ccc(C)cc1NC(=O)CN(C)S(=O)(=O)c1ccc2c(c1)CCCN2C(C)=O	-21.8
CC(C)OCCCN1CN(S(=O)(=O)c2cccc(Cl)c2)c2nc3ccccc3nc21	0.29
CCOc1ccccc1NC(=O)NS(=O)(=O)c1ccc(C)cc1	17.2
Cc1cccc(N2C(=O)c3cccc4c(N5CCCCC5)c([N+](=O)[O-])cc(c34)C2=O)c1C	6.59
O=C(COc1ccc(Cl)cc1)N/N=C/CCc1ccccc1	-16.4
CCOc1ncccc1C(=O)OCC(=O)Nc1nnc(-c2ccccc2)o1	-11.3
CCn1c(SCc2nc3scc(-c4ccccc4)c3c(=O)[nH]2)nnc1-c1cccs1	-23.4
C/C=C/c1ccc(OCC(O)CNCC(c2ccc(OC)cc2)N(C)C)c(OC)c1.O=C(O)C(=O)O (stereo not drawn)	-66.5
O=C(CN1C(=O)CSC1=O)c1ccccc1	1.83
COc1cccc(N2CCN(C(=O)CCCCCn3c(=S)[nH]c4cc5c(cc4c3=O)OCO5)CC2)c1	20.6
CC1Oc2ccccc2N(CC(=O)NCc2cccs2)C1=O (stereo not drawn)	0.0611
Cc1cccc(C)c1NC(=O)CN(C)C(=O)c1ccc2c(=O)n3c(nc2c1)CCC3	9.41
O=[N+]([O-])C1C(c2ccccc2)=NOC1c1ccccc1O (stereo not drawn)	14
O=C(CCCN1C(=O)/C(=C/c2cccs2)SC1=S)Nc1ccc(C(=O)O)cc1	13.5
O=C(Nc1ccc2c(c1)CCC2)c1ccc(Cl)nc1	-7.3
Cc1cc2cc(C)c3nnc(SCC(=O)Nc4ccc(S(=O)(=O)N5CCCCC5C)cc4)n3c2cc1C (stereo not drawn)	4.05
Cc1ccc(-c2nn(-c3ccccc3)cc2CN(C)C(=O)CCC(=O)O)cc1C	16.1
O=C(N/N=C/c1cc2c(cc1Br)OCO2)c1c[nH]c2ccccc12	14.2
CCn1cc([N+](=O)[O-])c(C(=O)N2CCCCCC2)n1	17.1
COc1ccc(CCCc2nnc(SCC(=O)NN)o2)cc1	9.04

Compound	hERG current change (%, negative = inhibition) at 10uM [%]
Cc1ccc(-c2noc(CCC(N)=O)n2)cc1	-4.28
COc1cccc(-c2nnc(SCC(=O)N3CCOCC3)o2)c1	4.32
Cc1c(NC(=O)c2cc3nc(-c4ccccc4)cc(C)n3n2)c(=O)n(-c2ccccc2)n1C	-8.61
Cc1cccn2c(=O)c3cc(C(=O)NCc4ccco4)c(=N)n(CCc4ccccc4)c3nc12	-76.5
COC(=O)c1ccc(OC(=O)c2ccc(OC)cc2)c(OC)c1	11.8
COc1ccc(N/C(C)=C2/C(=O)C(=O)N(CCO)C2c2ccc([N+](=O)[O-])cc2)cc1 (stereo not drawn)	-67.3
COc1cc(/C=N\NC(=O)C2CC3C=CC2C3)ccc1O (stereo not drawn)	12
Cc1ccc2[nH]c3c(c2c1)CCC3=O	1.27
CCCCC(=O)NC(=S)NNC(=O)c1ccc(OC)cc1	13
Cc1cccc(C)c1NS(=O)(=O)c1ccc(OCCNS(C)(=O)=O)cc1	-4.99
Cc1cc(Nc2ccccc2)n(-c2nc3ccccc3[nH]2)n1	-4.71
CCN(C(=O)COC(=O)COc1ccccc1Cl)c1c(N)n(Cc2ccccc2)c(=O)[nH]c1=O	8.77
CCN(CC)C(=O)CN1C(=O)C2(OCC(C)(C)CO2)c2ccccc21	4.84
CCCCc1nnc(NC(=O)CN2C(=O)C3CCCCC3C2=O)s1 (stereo not drawn)	2.03
COc1cc(OC)cc(C(C(=O)NCc2ccccc2)N(Cc2ccco2)C(=O)c2ccno2)c1 (stereo not drawn)	-28.1
CCOC(=O)N1CCC(N2CCN(c3cc(C)ccc3C)CC2)CC1	-51.2
CCOC(=O)c1c(NC(=O)C2c3ccccc3Oc3ccccc32)sc(C(C)=O)c1C	27.9
Cc1cc(C(F)F)n2ncc(C(=O)N3CCc4ccccc4C3)c2n1	-24
Cn1c(=O)[nH]c2nc[nH]c2c1=O	18.7
Cc1cc(C)n(C(C)CC(=O)Nc2ccc(-c3ccno3)cc2)n1 (stereo not drawn)	1.47
Cc1ccc2c(c1)N(CCCC(=O)Nc1cccc(C(F)(F)F)c1)C(=O)CO2	12.9
Cc1nn(-c2nnc(NCc3ccccc3)nn2)c(C)c1Br	-8.53

Compound	hERG current change (%, negative = inhibition) at 10uM [%]
COC(=O)CC1=NN(c2nc(C)cc(C)n2)C(=O)C1	16.9
COc1ccccc1NC(=O)c1sc2nc(-c3ccco3)ccc2c1N	1.24
Cc1ccc(C(C(=O)NC2CCCCC2)N(C(=O)CCCC(=O)Nc2ccccn2)c2ccc3c(c2)OCCO3)cc1 (stereo not drawn)	-3.99
COC(=O)/C(=C\Nc1ccccc1)NC(=O)c1ccc(Cl)cc1Cl	-17.2
O=C1CCC(=O)N1c1ccc(S(=O)(=O)Nc2cccc([N+](=O)[O-])c2)cc1	35.3
Fc1ccc(Cn2cc(C(=S)N3CCOCC3)c3ccccc32)cc1	0.0885
CC1CCN(Cc2c(O)ccc3c2O/C(=C\c2ccco2)C3=O)CC1	-14.1
O=C(CN1C(=O)NC2(CCCCC2)C1=O)NCC(=O)Nc1ccc(F)c(F)c1	-0.566
Cc1ccc(N2C(=O)NC(=O)/C(=C\c3cc(C)n(-c4cc(C(=O)O)cc(C(=O)O)c4)c3C)C2=O)cc1	15
Cc1ccc(S(=O)(=O)N2CCC(C(=O)N3CC(C)OC(C)C3)CC2)cc1 (stereo not drawn)	9.16
CCn1nc(C)c(CN2CCCCC2C(=O)Nc2ccc(Oc3cccnc3)cc2)c1C (stereo not drawn)	-15.9
CN(C)CCNc1c2c(c(C#N)c3nc4ccccc4n13)CCCC2	-23.5
C=CCc1cc(C)ccc1OCCOCCn1ccnc1.O=C(O)C(=O)O	-30.7
COc1ccc(C)cc1NC(=O)C1CCN(S(=O)(=O)c2cccc3cccnc23)CC1	-21
COc1ccc2c(CC(=O)Nc3nccs3)coc2c1	19.7
COc1cc(C=O)ccc1OCCCOc1ccc([N+](=O)[O-])cc1	-10.8
COc1ccc(NC(=O)COC(=O)C2CC(=O)N(CCc3ccc(OC)c(OC)c3)C2)cc1Cl (stereo not drawn)	-10.6
Cc1ccc(-n2c(C)nnc2SCC(=O)N(C)c2c(N)n(Cc3ccccc3)c(=O)[nH]c2=O)cc1	4.71
CCOc1ccccc1NC(=O)c1cccc2ccccc12	-6.91
N#C/C(=C\Nc1ccccc1SC(F)(F)F)c1nc(-c2ccc(F)cc2)cs1	11.3
Cc1cc(=O)[nH]c2ccc(Cl)cc12	3.12
CC(=O)c1ccccc1OCCOCCOCCOc1ccccc1C(C)=O	-29.7

Compound	hERG current change (%, negative = inhibition) at 10uM [%]
NNc1nc2c(Cl)cccc2s1	4.87
Cc1cc(C)n2nc(N)c(N=Nc3cccc(Cl)c3)c2n1	10.7
CSCCC(NC(=O)c1ccco1)C(=O)O (stereo not drawn)	-0.773
CCCSP1(=S)NCCCO1 (stereo not drawn)	14.1
c1ccc2c(c1)[nH]c1nc(SCCN3CCOCC3)nnc12	-1.72
Cc1n[nH]c(=S)n1/N=C/c1ccc(Br)o1	12.5
O=C(NNc1c2ccccc2nc2ccccc12)C(O)c1ccccc1 (stereo not drawn)	-1.17
COc1cccc(N(C(=O)c2ccn[nH]2)C2(C(=O)Nc3c(C)cccc3C)CCCCC2)c1	-32
COc1ccc(NC(=O)CCCCC(=O)Nc2ccc(OC)cc2)cc1	14.7
CCC(C)NCC(O)(c1ccc(Cl)cc1)c1ccc(Cl)cc1 (stereo not drawn)	-37.7
CC1=C(C(=O)OCc2ccccc2)C(c2ccsc2)NC(=O)N1C (stereo not drawn)	-37.7
COc1ccc(-c2ccc3oc(-c4ccc(OC)cc4)c(C#CC4(O)CCCCC4)c3c2)cc1	17.8
CCC(Oc1ccccc1)C(=O)N1CCN(CC)CC1 (stereo not drawn)	14.9
CN1CCN(S(=O)(=O)c2ccc(-c3noc(C4CCN(S(C)(=O)=O)CC4)n3)cc2)CC1	2.81
CN(CC(=O)Nc1ccccc1C(=O)NC1CC1)Cc1ccc(Cl)cc1	-43.1
Cc1ccc(S(=O)(=O)N2CCN(C(=O)c3nn(C(C)C)c(=O)c4ccccc34)CC2)cc1C	-17
COc1ccc(C(CC(=O)O)NC(=O)c2ccco2)cc1OC (stereo not drawn)	1.57
CCOC(=O)C1(Cc2ccccc2)CCN(Cc2ccc(COC)o2)CC1	-19.1
COc1cc(-c2nnc(SCC(=O)N3CCOCC3)o2)cc(OC)c1OC	-5.11
COc1ccc(CCN(C)c2ccc(C(N)=O)cc2[N+](=O)[O-])cc1OC	-6.3
CCCCNc1nc(N)ncc1[N+](=O)[O-]	6.58
